Experimental data: PubChem BioAssay AID488969 (Vanderbilt High Throughput Screening Facility, 2010)
The full ranking holds about 110,000 compounds; the median of “z-score” is about -0.1, and the highest 2% start at about 2. Some of the results follow. The source made the active and inactive calls.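 Rule for the calls: active = z-score in the third read window above 3 or below -3; inactive = the rest.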

Target: Metabotropic glutamate receptor 8 (Rattus norvegicus) (UniProt P70579)
Assay: mGluR8 Gi/Go-coupled signaling modulation – cell-based, rat, thallium flux, HTS, primary screen (AID 488969)
Conditions: HEK293 rat mGluR8, GIRK (G protein-gated inwardly rectifying potassium channel) thallium flux, FluoZin2; at 10 µM; stronger effect = higher value; submaximal glutamate (EC20) added with thallium

Chain of UniProt P70579 (P70579 whole entry, looked up): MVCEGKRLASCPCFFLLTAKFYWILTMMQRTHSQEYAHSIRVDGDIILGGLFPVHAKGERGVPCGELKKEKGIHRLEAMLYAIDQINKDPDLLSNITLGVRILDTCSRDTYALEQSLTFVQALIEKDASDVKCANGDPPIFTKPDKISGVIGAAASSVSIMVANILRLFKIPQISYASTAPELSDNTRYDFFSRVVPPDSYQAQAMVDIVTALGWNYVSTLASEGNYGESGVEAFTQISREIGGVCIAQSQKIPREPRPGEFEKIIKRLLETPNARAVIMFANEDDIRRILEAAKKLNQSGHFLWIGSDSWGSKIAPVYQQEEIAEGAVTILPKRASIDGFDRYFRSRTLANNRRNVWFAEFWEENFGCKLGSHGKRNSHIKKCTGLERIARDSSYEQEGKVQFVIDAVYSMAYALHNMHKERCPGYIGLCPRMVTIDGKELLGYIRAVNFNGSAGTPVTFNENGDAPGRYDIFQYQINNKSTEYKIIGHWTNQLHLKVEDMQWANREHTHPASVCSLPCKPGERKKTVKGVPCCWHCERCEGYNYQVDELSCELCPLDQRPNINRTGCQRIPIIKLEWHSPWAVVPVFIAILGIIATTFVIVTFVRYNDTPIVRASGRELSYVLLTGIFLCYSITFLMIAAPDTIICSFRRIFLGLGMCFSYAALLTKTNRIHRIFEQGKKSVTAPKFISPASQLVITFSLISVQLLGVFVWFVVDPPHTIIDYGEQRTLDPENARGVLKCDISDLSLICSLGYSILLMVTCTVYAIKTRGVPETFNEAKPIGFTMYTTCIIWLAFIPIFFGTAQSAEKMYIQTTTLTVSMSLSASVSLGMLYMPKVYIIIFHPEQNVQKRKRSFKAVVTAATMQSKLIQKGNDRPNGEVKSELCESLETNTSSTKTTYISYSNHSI

Compound	z-score
CN(C(=O)c1ccco1)c1nnc(C23CC4CC(CC(C4)C2)C3)s1	-0.39
CC(C)(C)C(=O)NCCn1ccc2ccccc21	1.13
O=C(c1ccco1)N1CCN(c2nc3ccccc3c(=O)n2-c2ccccc2)CC1	-0.455
Cc1cc(NC(=O)CN2CCN(c3ccc(O)cc3)CC2)no1	-0.0506
CCN(CC)C(=O)c1ccc(C(=O)c2c(C)cc(C)cc2C)cc1	-0.267
Nc1ccc(-n2c(N)c(C(=O)NCc3ccc4c(c3)OCO4)c3nc4ccccc4nc32)cc1	1.52
CC(=O)c1ccc(OCCCC(=O)NC2CCCc3ccccc32)cc1 (stereo not given)	-0.701
COc1ccc(CNC(=O)c2cccs2)cc1	0.0587
N#C/C(=C\c1ccc(N2CCOCC2)o1)c1nc2ccccc2[nH]1	-1.83
CC(O)C(O)C(O)C(O)C1NCCS1 (stereo not given)	-0.129
CCCCCCCCN1C(=O)N(C)C(N(O)C(=O)NC)C1(C)C (stereo not given)	0.0757
COc1ccccc1NS(=O)(=O)c1cccc(C(=O)N/N=C/c2ccc3c(c2)OCCO3)c1	-0.485
C=CCn1c(=O)c(C(=O)Nc2ccccc2C(=O)OCC)c(O)c2ccccc21	-0.951
CCC(=O)Nc1ccnc(-c2cccnc2)n1	-0.434
O=S(=O)(Nc1ccc2ccccc2c1)c1ccccc1	-0.825
CC(C)CCNC(=O)c1cccnc1Sc1ccccc1	-0.0729
CCOC(=O)/C(=C/c1ccc(F)cc1)NC(C)=O	-0.159
Cc1ccc(-c2nn(CC(=O)NCc3cc(-c4nn(C)c(=O)c5ccccc45)ccc3C)c(=O)c3ccccc23)cc1	0.00878
Cc1ccc(C(=O)NCc2ccc(Cl)c(Cl)c2)o1	0.434
COc1ccc(CN=Cc2[nH]c3ccc(Br)c(Cl)c3c2O)cc1	0.105
COc1ccc(CCNC2CC(=O)N(CCc3ccc(OC)c(OC)c3)C2=O)cc1OC (stereo not given)	-0.18
COC(=O)c1ccc(CSc2n[nH]c(C)n2)o1	-0.0591

Compound	z-score
N#CC(c1cccc(C(F)(F)F)c1)(c1ncc(C(F)(F)F)cc1Cl)N1CCOCC1 (stereo not given)	-0.234
COc1ccc(N2CCN(C(=O)Cc3ncc(C(F)(F)F)cc3Cl)CC2)cc1	-0.362
Cc1cc(C(=O)O)c(S(C)(=O)=O)s1	-0.174
COc1ccc2c(c1OC)C(=O)NC(C)=C(C(=O)OC(C)(C)C)C2O (stereo not given)	-0.738
NC(=O)CC[C@H](NC(=O)c1ccc(F)cc1)C(=O)OCC(=O)Nc1c(F)c(F)c(F)c(F)c1F	0.134
Cn1c(=O)n(C)c2cc([N+](=O)[O-])c(N3CCN(S(C)(=O)=O)CC3)cc21	0.0226
CC1CCN(Cc2nc3c(c(=O)n(C)c(=O)n3C)n2CCc2ccccc2)CC1	-0.572
Brc1cnc(N2CCOCC2)nc1N1CCCCC1	0.298
Cc1ccc2[nH]c3c(N4CCN(Cc5ccc6c(c5)OCO6)CC4)ncnc3c2c1	-0.43
CCOc1ccccc1N1CCN(C(=O)c2cc[n+]([O-])cc2)CC1	1.47
Cc1ccc(CNc2oc(-c3cccs3)nc2C#N)cc1	0.993
Cc1ccc(CSc2nc3c(c(=O)[nH]2)C(c2ccncc2)C2=C(CCCC2=O)N3)cc1 (stereo not given)	-0.78
COc1ccc(-c2[nH]nc(-c3ccccc3)c2-c2nc3ccccc3[nH]2)cc1	-0.16
Cc1cc(OCCCCN2C(=O)NC(C)(C)C2=O)cc(C)c1Cl	0.0491
c1ccc(Sc2ncnc3c2oc2ccccc23)cc1	-0.124
CCC(Sc1ccccn1)C(=O)Nc1nnc(C)s1 (stereo not given)	-0.138
O=C(COC(=O)/C=C/c1nc2ccccc2s1)Nc1ccccc1Oc1ccccc1	-0.284
CNC(=S)N1N=C(c2ccc(OC)cc2)CC1c1ccc(N(C)C)cc1 (stereo not given)	-0.218
COc1ccccc1/C=c1\sc2nc(-c3cccs3)nn2c1=O	-0.262
COCCn1c(CN2CCC(Cc3ccccc3)CC2)nc2c1c(=O)n(C)c(=O)n2C	-0.501
CCCCCCCSc1nsc(N)n1	0.546
O=C(NNc1c2ccccc2nc2ccccc12)c1cc2ccccc2cc1O	-0.234

Compound	z-score
Cc1nnc(-c2cnn(-c3ccccc3)c2N)n1Cc1ccc(F)cc1	0.321
O=C(c1ccccc1NS(=O)(=O)c1ccc2c(c1)OCCO2)N1CCOCC1	-0.152
O=C1NC(Cc2c[nH]c3ccccc23)C(=O)N1c1ccc(F)cc1 (stereo not given)	0.0143
Cc1ccc(S(=O)(=O)/N=C(/Nc2c(C)n(C)n(-c3ccccc3)c2=O)c2ccccc2)cc1	-0.00392
Cn1c(N)c(C(=O)c2ccc(C#N)cc2)c(=O)n(C)c1=O	-0.206
CC(C)CC(=O)NC(=S)NCc1ccccc1	-0.128
Cc1cc(C)cc(Oc2nc(C(F)(F)F)nc3ccccc23)c1	-0.181
COc1cccc(Nc2ncccc2C(=O)NCc2ccccc2)c1	-0.256
CCOC(=O)c1c(C)nc2c(c1C)c(=O)oc1ccccc12	-0.393
COc1cccc(OC)c1OCCCCN1CCCC1	-0.52
COc1ccc(CN=CC2=C(O)CNC2=O)cc1OC	0.0947
CC(C)(C)c1nc(SCC(=O)Nc2nc3c(s2)CCCC3)c2ccccc2n1	-0.185
COc1cc(OC)cc(C(=O)N2CCN(C(=O)c3cccc(F)c3)CC2)c1	-0.152
O=C(CCCCCn1c(=S)[nH]c2ccccc2c1=O)N1CCOCC1	-0.155
N#Cc1c(-n2cccc2/C=N/O)sc2c1CCCC2	-0.27
CCOC(=O)N1CCC(NC(=O)CCC(=O)N2CC(C)Oc3ccccc32)CC1 (stereo not given)	-0.00303
CCCCNC(=O)CSc1nc2ccc(NC(=O)CSc3nnc(N)s3)cc2s1	-0.425
CC(C)(C)C(=O)NNc1nc(-c2ccccc2)c2cc(Br)ccc2n1	0.475
Cc1cccc(N2CCN(C(=O)c3ccc(Cl)c(S(=O)(=O)NCc4ccco4)c3)CC2)c1C	-0.0125
Cn1c(=O)[nH]c(=O)c2c1nc(N1CCN(c3ccccc3)CC1)n2CCSc1ncccn1	0.0511
COc1cc(C(=O)OCC(=O)c2c[nH]c3ccccc23)ccc1OCC(=O)N1CCOCC1	0.0746
Nn1c(COc2ccccc2)nnc1SC(F)F	0.416

Compound	z-score
CCCC[n+]1ccn(-c2nc3ccccc3nc2[N-]S(=O)(=O)c2ccccc2)c1	-0.373
COc1cccc2cc(C(=O)N3CCN(C(=O)c4ccco4)CC3)c(=O)oc12	0.0339
Nc1nnc(CC(=O)N/N=C/c2ccc(-c3ccccc3Cl)o2)s1	-0.354
COc1ccc(OC)c(-c2nnc(SCC(=O)N3CCCc4ccccc43)o2)c1	-0.66
CCOc1ccc(NC(=O)CSc2ccc(-c3ccccn3)nn2)cc1	-0.0986
CN(C)CCSc1nnc2[nH]c3ccccc3c2n1	0.0211
COc1cccc(C(=O)Nc2cccc(-c3nnc(-c4ccco4)o3)c2)c1	-1
CCOC(=O)N1CCC(NC(=O)c2ccc3nc4ccccc4c(=O)n3c2)CC1	-0.331
O=C(c1cccs1)N1CCC(c2nc3c(nnn3Cc3ccccc3)c(=O)[nH]2)CC1	-0.092
CN(C)c1ccc(C=C2C(=O)OC(C)(C(C)(C)C)OC2=O)cc1 (stereo not given)	1.05
CSC1=N/C(=C\c2ccccc2)C(=O)N1C	-0.0166
CCN1CCN(c2ccc(NC(=O)c3ccc4c(c3)[nH]c(=O)n4Cc3ccc(F)cc3)cc2)CC1	0.0981
CCOC(=O)c1cccc(-n2c(-c3ccc(OC)cc3)nc3nc4ccccc4nc32)c1	-0.506
O=c1c2oc3ccccc3c2ncn1Cc1ccccc1Cl	-0.23
CC(C)(C)c1ccc(C(=O)NCc2nnc(SCC(=O)N3CCCc4ccccc43)n2-c2ccccc2)cc1	-0.167
C/C(CCC(=O)O)=N/Nc1ccc([N+](=O)[O-])cc1[N+](=O)[O-]	-0.315
Cc1cc2ccccn2c1C(=O)c1ccc(Cl)cc1	-0.0562
CCOc1ccc(NS(=O)(=O)c2ccc3c(c2)CCN3C(=O)C2CCC2)cc1	-0.102
Cc1ccc2c(c1)cc(CN(Cc1ccc3c(c1)OCO3)C(=O)c1ccccc1)c1nnnn12	0.399
CC(C)C(=O)c1cn(CC(=O)N2CCCc3ccccc32)c2ccccc12	-0.649
N#Cc1ccc(N2CCN(c3ccc(F)cc3)CC2)cc1	-0.419
Cn1c(=O)c2c(nc(SCC(=O)N3CCCc4ccccc43)n2C)n(C)c1=O	0.0244

Compound	z-score
C=CCn1c(SCC(=O)O)nnc1-c1ccccc1	0.236
Cc1ccccc1-c1nc(Cc2ccc(Cl)cc2)no1	-0.647
O=C(COc1ccccc1Cl)NC(=S)N1CCc2ccccc21	active: 12.1
O=C(NC(=S)NNC(=O)c1ccc(Cl)cc1Cl)c1cccnc1	-0.129
COc1cc(-c2nnc(COC(=O)CSc3cc(C)c4ccccc4n3)o2)cc(OC)c1OC	-0.267
CSCCc1nc(SCC(=O)Nc2nnc(C)s2)[nH]c1C	-0.0492
O=C(Cn1c(=O)n(Cc2ccccc2)c(=O)c2ccccc21)NCc1ccco1	-1.05
CN1C(=O)c2cccc(NCCCCCCN3C(=O)c4ccccc4C3=O)c2C1=O	-0.446
FC(F)(F)c1cccc(Sc2cc(C(F)(F)F)nc(-c3ccccn3)n2)c1	-0.203
Nc1c(Cl)ncnc1N/N=C/c1ccnc2ccccc12	0.373
Cc1cc(C)c(C#N)c(SCC(=O)NC(C)(C)C)n1	-0.0199
CCOC(=O)c1cc(C#N)c(SC)nc1-c1ccccc1	-0.657
Cc1ccc(CCN2CC(C(=O)NCCCN3CCCCCC3)CC2=O)cc1 (stereo not given)	-0.36
O=C(COc1ccc(S(=O)(=O)NCc2ccccc2)cc1)N1CCOCC1	-0.0335
CCc1c(C)[nH]c2nc3ccccc3n2c1=O	-0.36
CCn1c(SCC(=O)NCc2ccccc2)nnc1-c1c[nH]c2ccccc12	0.128
CCCN(CCC)C(=O)CC(c1ccc(F)cc1)c1ccco1 (stereo not given)	-0.592
Cc1cc(Br)ccc1SCC(=O)OCC(=O)Nc1ccccc1C#N	-0.233
CCOc1ccc(C(=O)/C=C/Nc2ccc(S(=O)(=O)N=C(N)N)cc2)cc1	-0.195
CC(=O)c1c(C)[nH]c(C(=O)COc2cc(C)ccc2C(C)C)c1C	0.317
O/C(=C\Sc1nnc(Cc2ccccc2)o1)c1ccc(F)cc1	0.166
CCCCn1c(N)c(Sc2ccccc2)c(=O)[nH]c1=O	-0.264
